Experimental data reported in patent US20220112284A1 (Innovent, published 2022).

What was measured:
[1] = molecular target: T1, human LAG-3 on 293 cells overexpressing human LAG-3 (293-LAG-3) (human, UniProt P18627 23-525); test: FACS on 293-LAG-3 cells, PE anti-human Fc detection
T1 construct: whole, on cells; also called LAG-3 on the cell surface
T1 sequence (looked up): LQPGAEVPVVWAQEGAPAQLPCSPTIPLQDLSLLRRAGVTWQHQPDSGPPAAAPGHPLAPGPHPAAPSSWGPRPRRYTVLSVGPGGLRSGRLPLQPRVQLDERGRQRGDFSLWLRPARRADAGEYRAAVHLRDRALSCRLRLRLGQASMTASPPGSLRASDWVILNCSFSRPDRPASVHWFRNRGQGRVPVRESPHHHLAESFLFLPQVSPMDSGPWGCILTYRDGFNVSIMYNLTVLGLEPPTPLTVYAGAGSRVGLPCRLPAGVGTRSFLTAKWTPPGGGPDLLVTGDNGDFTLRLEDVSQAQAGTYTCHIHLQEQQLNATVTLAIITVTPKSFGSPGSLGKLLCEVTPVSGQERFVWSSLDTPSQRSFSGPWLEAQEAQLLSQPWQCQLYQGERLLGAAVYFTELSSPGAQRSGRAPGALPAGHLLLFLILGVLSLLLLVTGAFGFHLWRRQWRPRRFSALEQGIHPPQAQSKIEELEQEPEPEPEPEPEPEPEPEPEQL
Description: (§1) 2) Detection: The cell suspension was centrifuged at 400 g on a centrifuge for 5 min to remove the cell culture medium. The serial dilutions of the bispecific antibody IGN-LP disclosed herein and anti-humanized Nb-Fc and anti-LAG-3 antibody ADI31853 as controls were added to the U-shaped plate at 100 μL each, and then the cells were resuspended and put onto the ice to stand for 30 min. The cell suspension was centrifuged at 400 g for 5 min to remove the supernatant, and the cells were washed with PBS to remove the unbound antibodies. The resulting cell suspension was centrifuged at 400 g for 5 min to remove PBS. 100 μL of the solution of PE-conjugated anti-human Fc antibody (Jackson Immuno Research) diluted at a ratio of 1:200 was added to each well, and the cells were incubated in the dark on the ice for 30 min. Then the cell suspension was centrifuged at 400 g for 5 min to remove the supernatant. The cells were washed with PBS once to remove the unbound PE-conjugated anti-human Fc antibody. Then the cells were resuspended with 100 μL of PBS, and the binding of the antibody to cells was assayed by FACS.

[2] = molecular target: T2, human PD-L1-his (human, UniProt Q9NZQ7 fragment); test: ForteBio Octet BLI; antibody on AHQ tip, human PD-L1-His 100 nM in solution, monovalent
T2 construct: Bought reagent; also called PD-L1 protein; not shown: His tag
Description: (§2) The equilibrium dissociation constant (KD) for the binding of the prepared exemplary anti-LAG-3/PD-L1 bispecific antibody IGN-LP disclosed herein to LAG-3 and PD-L1 was determined by a kinetic binding assay using the Octet system manufactured by ForteBio. A ForteBio affinity assay was performed according to the method reported in the literature (Estep, P, et al., High throughput solution Based measurement of antibody-antigen affinity and epitope binning MAbs, 2013, 5(2): p. 270-278). Briefly:
(§3) The anti-human IgG Fc biosensor AHQ was immersed in each well containing the antibody solution at room temperature for 600 s to load the samples. The sensor was then washed in SD buffer until it returned to the baseline, and then immersed in a well containing 100 μL of the antigen solution to monitor the binding of the antibody to the antigen. The sensor was then transferred to a well containing 100 uL of the SD buffer to monitor the antibody dissociation (the operation procedures were set as: Baseline, Loading ˜1 nm, Baseline, Association and Dissociation, each running for a time depending on the binding and dissociation rates of the samples). The rotation speed was 400 rpm and the temperature was 30° C. […]

[3] = molecular target: T2, human PD-L1-his; test: ForteBio Octet BLI; antibody on AHQ tip, human PD-L1-His 100 nM in solution
Description: as §2, §3

[4] = molecular target: T3, human PD-L1 on CHOS cells overexpressing PD-L1 (CHOS-PD-L1) (human, UniProt Q9NZQ7); test: FACS on CHOS-PD-L1 cells, PE anti-human Fc detection
T3 construct: whole, on cells; also called CHO-PD-L1; PD-L1 on the cell surface
Description: as §1

[5] = molecular target: T4, human LAG-3-his (human, UniProt P18627 23-450); test: ForteBio Octet BLI; antibody on AHQ tip, human LAG-3-His 100 nM in solution
T4 construct: Bought reagent; also called LAG-3 protein; not shown: His tag
T4 sequence (looked up): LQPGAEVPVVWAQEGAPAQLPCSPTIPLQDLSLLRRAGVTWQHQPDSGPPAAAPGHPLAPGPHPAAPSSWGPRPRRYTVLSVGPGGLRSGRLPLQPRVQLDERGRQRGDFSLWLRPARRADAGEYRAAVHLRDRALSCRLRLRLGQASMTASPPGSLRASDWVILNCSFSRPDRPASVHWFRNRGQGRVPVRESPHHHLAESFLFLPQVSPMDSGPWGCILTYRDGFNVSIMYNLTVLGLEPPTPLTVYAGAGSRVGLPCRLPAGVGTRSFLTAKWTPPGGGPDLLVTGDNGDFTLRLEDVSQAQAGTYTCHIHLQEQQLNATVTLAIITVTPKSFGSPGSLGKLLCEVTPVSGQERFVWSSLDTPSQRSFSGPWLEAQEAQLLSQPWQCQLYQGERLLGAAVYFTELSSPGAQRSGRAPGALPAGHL
Description: as §2, §3

[6] = molecular target: T4, human LAG-3-his; test: ForteBio Octet BLI; antibody on AHQ tip, human LAG-3-His 100 nM in solution, monovalent
Description: as §2, §3

T2 sequence (Q9NZQ7 19-238 limits assumed): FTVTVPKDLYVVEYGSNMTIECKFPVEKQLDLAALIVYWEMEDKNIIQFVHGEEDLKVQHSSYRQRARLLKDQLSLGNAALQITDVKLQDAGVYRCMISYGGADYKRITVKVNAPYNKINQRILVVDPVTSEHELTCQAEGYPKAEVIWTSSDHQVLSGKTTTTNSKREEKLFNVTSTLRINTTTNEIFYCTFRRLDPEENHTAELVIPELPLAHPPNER

EC50 [1]: 0.434 nM | Kd [2]: 16.8 nM | koff [3]: 0.00584 s⁻¹ | kon [3]: 347000 M⁻¹ s⁻¹ | EC50 [4]: 1.03 nM | kon [5]: 117000 M⁻¹ s⁻¹ | Kd [6]: 1.71 nM
B1: anti-LAG-3/PD-L1 bispecific antibody IGN-LP (bispecific antibody)
heavy: QLQLQESGPGLVKPSETLSLTCTVSGGSIYSESYYWGWIRQPPGKGLEWIGSIVYSGYTYYNPSLKSRVTISVDTSKNQFSLKLSSVTAADTAVYYCARVRTWDAAFDIWGQGTMVTVSSASTKGPSVFPLAPSSKSTSGGTAALGCLVKDYFPEPVTVSWNSGALTSGVHTFPAVLQSSGLYSLSSVVTVPSSSLGTQTYICNVNHKPSNTKVDKKV[sequence of human IgG1 Fc with changes not given]GGGGSGGGGSQVQLQESGGGLVQPGGSLRLSCAASAYTISRNSMGWFRQAPGKGLEGVAAIESDGSTSYSDSVKGRFTISLDNSKNTLYLEMNSLRAEDTAVYYCAAPKVGLGPRTALGHLAFMTLPALNYWGQGTLVTVSS
light: DIQMTQSPSSLSASVGDRVTITCQASQDISNYLNWYQQKPGKAPKLLIYDASNLETGVPSRFSGSGSGTDFTFTISSLQPEDIATYYCQQVLELPPWTFGGGTKVEIKRTVAAPSVFIFPPSDEQLKSGTASVVCLLNNFYPREAKVQWKVDNALQSGNSQESVTEQDSKDSTYSLSSTLTLSKADYEKHKVYACEVTHQGLSSPVTKSFNRGEC
notes: also called anti-PD-L1/LAG-3 bispecific antibody
